Some of the results follow.
System: PfHDP1 homeodomain (GST-tagged)
Test: gcPBM binding intensity (ln(normalized median fluorescence intensity)); higher = stronger DNA binding
Method in brief: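 The binding buffer was 1× PBS containing 1% milk, 0.2 mg/ml BSA, 0.5% salmon testes DNA and 0.03% Triton X-100. In it, GST-tagged P. falciparum DNA-binding domains expressed in E. coli were applied for 1 h to an Agilent 4 × 180k array of primer-extended double-stranded 36-bp intergenic genomic probes plus negative controls. Binding intensity, read with Alexa488 anti-GST antibody and a 488 nm scan, is the highest Masliner-normalised natural-log median intensity across replicate spots of either probe orientation.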

| Sequence | gcPBM binding intensity (ln) |
| --- | --- |
| AACGTAAAACATATCTATCAAAATAAATCATTAATC [TGCATGCA_negctrl_site68] | 6.18 |
| AATATAATAATATTTTGTACATATCCTATGTATGAG [XGTACX_site8601] | 6.5 |
| CACGCACGCAGACACACACACACACGCACATATATA [CACACA_site6303] | 7.56 |
| AATATGACGTAGTGGTGTACACACATGGTACCTTTA [XGTACX_site3147] | 7.36 |
| TTATAAATATAATTTTGTACATATATATATATATAC [XGTACX_site5064] | 6.47 |
| TTAGAACTATTTTATACATGCAGTTATTTAATACTT [TGCATGCA_site1039] | 6.18 |
| TATAGAATAATCTATAAACACACAAACACAACAAAA [CACACA_site9374] | 6.95 |
| AAAAGATAATTATGCACACACACACCCCCACCCAAC [CACACA_site2570] | 10.5 |
| TTTTTTTTTACTGCATGTACTTGATGTAAATAAATT [XGTACX_site3045] | 6.3 |
| AATGGAAATTTTTCTTGTACACATATATGACATGTT [XGTACX_site1691] | 6.78 |
| CGTATGTGCGGACATGCATGCAATATACAAGAAAAA [TGCATGCA_site145] | 7.01 |
| TGTAGCCTGGAGAAGAGTACATAGTATCTGGTAGCT [XGTACX_site4943] | 6.37 |
| CTAAATAACTTAAGGTGTACGTTTCCAATAAAAAAA [XGTACX_site1742] | 6.36 |
| ACATATAAAATGATGCGTACATATTTGATCATATAC [XGTACX_site153] | 6.59 |
| TTTTTTTTTTGAAGTGCATGTTACGATGAAAAAAAA [TGCATGCA_site64] | 7.26 |
| GTATATTAATAAACATGTACACAATTTATTTATATT [XGTACX_site1012] | 6.6 |
| TTTTTTTTTAAATGTTGTACATTATATTTGTGTATA [XGTACX_site8354] | 6.35 |
| TGTCTTGTAAATTATTGTACTATTTAAAGTATACAA [XGTACX_site7864] | 6.45 |
| TTGTATATATTTATATGTACATATATTACTTTTGCT [XGTACX_site2449] | 6.34 |
| AAAATACAAACAAGTGGTACTGTTTATAAATGGTTG [XGTACX_site1503] | 6.09 |
| ATAATATAACAATACGCACACGTATACAAAAAAAAA [CACACA_site5703] | 7.05 |
| TTTTAAAAAGATCATTAAAAAAAAAAAAAGAACAAA [CACACA_negctrl_site528] | 6.47 |

| Sequence | gcPBM binding intensity (ln) |
| --- | --- |
| AAATAATGGTTAGCTACACACAAAGCATTTTTTGAA [CACACA_site1016] | 6.21 |
| CCATATAAAATATAAAAACACACGTATATATACATA [CACACA_site1511] | 6.67 |
| ATTCAATCTTTTAATACACACAATTTATTTCAAAAC [CACACA_site835] | 6.63 |
| ACAAAATGTAGAAAATGTACAAAATTAACAAAAGAA [XGTACX_site5019] | 7.13 |
| TGTACATATATATAGATATATATAGATATATATATA [CACACA_negctrl_site1678] | 8.32 |
| TATCCTAACTTTAGATGTACACAAATAAAAAAAAAA [XGTACX_site4491] | 6.32 |
| AAACAACATATATTAATATGTACATATATATAGATA [GTGCAC_negctrl_site229] | 6.58 |
| TTTTTATTGTTATAGTTATAATATATTATTTGATTA [XGTACX_negctrl_site27] | 6.41 |
| TTTTTTTTTTTTGTAACACACAATAATATAACATTA [CACACA_site3411] | 6.37 |
| AATAATTGTTAAAGCTGTACAATACTTATATAAGAA [XGTACX_site5729] | 6.71 |
| CACATATAAATATTAACACACATAATGAGTTATATA [CACACA_site7316] | 6.29 |
| TTATTAAGTAAATCACATTTAATTTTTTTTTTTTTT [CACACA_negctrl_site1280] | 6.13 |
| TTATACCATATTTATAGTACGTACAAATAAATCAAT [XGTACX_site4975] | 6.26 |
| AAGAAAAAAAAAAAAAGTACATGCAATATGGATCTT [XGTACX_site3106] | 6.44 |
| AATAATAAAGATCAATGTACATAATAAAAAAAAAAA [XGTACX_site2692] | 6.4 |
| TATCATGGGTGTATTTCACACACGGATAATCATTTA [CACACA_site8211] | 6.05 |
| AATGTTTATTAACATTGTACTTATAATATGTCACAA [XGTACX_site2974] | 6.11 |
| ATATATACAACTAAAGAACACACATCATTGTTCATT [CACACA_site9224] | 6.59 |
| AAACAATTTTTTAAAAGTACTTGAAAATTGTGAAAT [XGTACX_site2461] | 6.66 |
| AATCATGCTCCGGAAAGTACATAAATAAATAAATAA [XGTACX_site1690] | 8.22 |
| GAAAGGACAAGAATAGTGCACATGCAATGTTATTTT [GTGCAC_site9985] | 10 |
| ACAAAATTTTTAAGAACACACAAAAATGTACTATCG [CACACA_site2550] | 6.22 |

| Sequence | gcPBM binding intensity (ln) |
| --- | --- |
| CACATACACATACAAACACACATTATGTATATATAT [CACACA_site1599] | 6.97 |
| AAAAAAAAAAAACATACACACATACATACATATATA [CACACA_site8222] | 6.5 |
| CATTTACCCTTATTAACACACAAAATAAAATACGCT [CACACA_site7249] | 6.57 |
| AAATAACAAAAGAAGGTGCTCATAAAAATTCATACA [GTGCAC_site9864] | 6.29 |
| AAATTATAAAAAAAAAAAAAAAAAAAAAAAAAAAAA [XGTACX_negctrl_site501] | 6.2 |
| ATACAATGATATATACATATATATATATATATATAT [TGCATGCA_negctrl_site359] | 9.38 |
| AAAAAAAAAAAAAAAAAAAAAAAAAAAAAAAAAAAA [CACACA_negctrl_site204] | 7.55 |
| AACAATAGTAAAAATACACACATTAAACTTCATTTC [CACACA_site2126] | 6.24 |
| ATATATATATATCACGCACACACGAATTTTAAATAT [CACACA_site3131] | 8.95 |
| AAAAAAATTACGCAAGTGCATATAATTTAACAAAAA | 8.39 |
| AATGGTAATCCACATACACACACACCGACACATATA [CACACA_site8876] | 6.83 |
| AACATTTATATAAAAGAACACACATATAAAATATTA [CACACA_site9199] | 6.45 |
| ATCGCGAAGTAGCATTCACACACAGCAAAATATATA [CACACA_site9162] | 6.65 |
| AATGGTATAAACAATACACACATAATATAAATATTG [CACACA_site6878] | 6.42 |
| TTATATATAAATGTGTGTACTTATAAAATAATCATT [XGTACX_site5370] | 6.5 |
| ATAGGCAAAAAGTGTACACATTCATTTATATAAATA [CACACA_site4480] | 7.08 |
| AGATCTATTATTTTTTGTACTTATATATAAACTTAA [XGTACX_site1737] | 6.6 |
| CATATATAAATATGTACACACATATGTATGATCTCA [CACACA_site3868] | 6.36 |
| TTATTTATAAGTAATATTATATATTCTTTTAATACA [CACACA_negctrl_site471] | 5.92 |
| TTCTATATATTTGGAAGTACATTATATTTATTTTTT [XGTACX_site3172] | 6.18 |
| TAAAATTTTTGTTTTTGTACGAAACATCAATTTTAC [XGTACX_site4963] | 6.23 |
| TAACATTAAAATAAAAGTACTTAATAATATTAAGTA [XGTACX_site5920] | 6.23 |

| Sequence | gcPBM binding intensity (ln) |
| --- | --- |
| AAAAAAAATATCTATGCATGTAATATTATGATATTG [TGCATGCA_site546] | 6.39 |
| TTAATAATAAATGAAAGTACATATAAAAAAAAAAAA [XGTACX_site717] | 6.4 |
| CGTATAACATATGACACACACACATACATACACAAA [CACACA_site1803] | 7.04 |
| GATTTATATAATTCAAGTACTAAAAATATTTTTAAT [XGTACX_site5285] | 6.51 |
| ATACATATATGTGTGTGTACATAAATGTATATATTT [XGTACX_site6242] | 6.63 |
| GTATCTTTCAAAATATGTACATATATATATGTGTGT [XGTACX_site3512] | 7.14 |
| AACTTTATTCCTAATTGTACACATATATATATATAT [XGTACX_site6823] | 9.08 |
| GCATGGAACCATATATGTACATATATAAATAAATAA [XGTACX_site4996] | 6.85 |
| AATAGTAAAAGATATACACACACCAAAAAATAGAAT [CACACA_site2289] | 7.32 |
| ATTATACATATGTATGCACACATACATACACATATA [CACACA_site9155] | 9.74 |
| ATATATATATGTTTATGTACTTATAATAATATAACT [XGTACX_site4828] | 8.33 |
| TAATTTAAGAAAAAATGTACACAAATATAATAATAG [XGTACX_site8317] | 6.98 |
| AATGTATTTAAACTGACACACAAAAAAAATAAAATA [CACACA_site2138] | 6.91 |
| ATATTGTAAGTAAACACACACACATCTATAGGTATA [CACACA_site6462] | 6.77 |
| TTTAAAATATTAAAATGTACATATATATATATATAT [XGTACX_site6784] | 9.27 |
| ACATAAATATATTTTTCACACATCCTTAGTTATGAA [CACACA_site5179] | 6.86 |
| TATATATATATATATACACACATACATATATATATT [CACACA_site8185] | 9.43 |
| AAATATAAAAAATATACACACATATATAATATATAT [CACACA_site2963] | 6.52 |
| TAAGACTATTAAAAAATTGAGTACATGAACTGTTCA [GTGCAC_negctrl_site670] | 5.93 |
| TGTATATTTGATTCATGTACATATTTTATTTTAACT [XGTACX_site5169] | 6.49 |
| CCTATATAATTATAATGTACTTGTAAAAAATATAAC [XGTACX_site2864] | 6.77 |
| CAGATTTATTCAAACGCATGCTGTTTTAAAATAAAA [TGCATGCA_site874] | 6.15 |
